# The campaign covered roughly 52,000 compounds. About 1,700 (3.3%) were called active. Cut-off read from the data, not from the text of the source: active = survival mostly below about 52% (no sharp cut-off); inactive = mostly above about 56%. Some of the results follow.
# System: Wild type
# Experiment: S. aureus survival, RN4220 and DeltatarO strains – OD600, teichoic acid synthesis inhibitors, primary screen (AID 463173)
# Settings: S. aureus RN4220 wild type/DeltatarO growth, OD600, 18 h, active compounds read low, screened at 18.75 µg/mL (by protocol)
row,SMILES,survival
1,COc1ccc(-n2c(C)nnc2SCc2nc(-c3ccc(OC)c(OC)c3)no2)cc1,inactive: 87%
2,COc1ccc(OC)c(NC(=O)Cn2c(=O)n(-c3cccc(C)c3)c(=O)c3c2c2cc(C)ccc2n3C)c1,inactive: 68%
3,Cc1ccc(NC(=O)c2c(NC(=O)c3ccc(F)cc3)sc3c2CCCC3)cc1C,inactive: 80%
4,O=C(c1cc(-c2cccc(Cl)c2)on1)N1CCCCC1,inactive: 66%
5,COc1ccc(NC(=O)c2cc3c(=O)n(Cc4cccs4)ccc3nc2C)cc1,inactive: 59%
6,CCOC(=O)c1cc(OC(=O)c2cc(OC)c(OC)c(OC)c2)n(-c2ccccc2)n1,inactive: 67%
7,CCOC(=O)c1c(C)oc2nc(C)nc(N3CCN(c4cc(Cl)ccc4C)CC3)c12,inactive: 72%
8,COc1cccc(CNC(=O)CCCn2nc(C)c3sc4ccccc4c3c2=O)c1,inactive: 87%
9,CCOc1ccc(-n2c(SCC(=O)Nc3cc(C)on3)nc3c([nH]c4ccccc43)c2=O)cc1,inactive: 69%
10,CCc1ccccc1N(C)C(=O)Cn1cnc2sc(C)c(S(=O)(=O)N3CCC(C)CC3)c2c1=O,inactive: 85%
11,CCOC(=O)c1ccc(NC(=O)CSc2nc(-c3ccc(OC)cc3)cc(C(F)(F)F)c2C#N)cc1,inactive: 130%
12,CCn1cc2nc(SCC(=O)Nc3ccc(OC)c(Cl)c3)n(Cc3ccc(OC)cc3)c(=O)c2n1,inactive: 147%
13,COc1ccc(C)cc1NC(=O)Cn1c(=O)oc2cc(S(=O)(=O)N3CCCCC3)ccc21,inactive: 94%
14,Cc1ccc(Nc2ccc3cc(S(=O)(=O)N4CCCCC4)ccc3n2)cc1F,inactive: 55%
15,COc1ccc(-c2cc3nc(C)c(CCC(=O)NCc4ccccc4Cl)c(C)n3n2)c(OC)c1,inactive: 132%
16,O=C(Cc1ccccc1)N(Cc1cccnc1)c1nc2c(Cl)cccc2s1,inactive: 71%
17,COc1ccc(N(CC(=O)N2CCN(c3ccccc3)CC2)S(=O)(=O)c2c(C)nn(C)c2C)cc1,inactive: 86%
18,COc1cccc(CN(Cc2nnnn2C2CCCCC2)CC2CCCO2)c1 (stereo not drawn),inactive: 123%
19,CC(=O)c1ccc(NC(=O)c2cn(-c3ccccc3)nc2-c2ccc(Br)cc2)cc1,inactive: 78%
20,O=C(CCC1CCCC1)N1CCc2c([nH]c3ccccc23)C1c1ccc(F)cc1 (stereo not drawn),inactive: 73%
21,N#Cc1nc(COc2ccccc2Cl)oc1NCCc1ccccc1,inactive: 25%
22,CCOc1ccc(NC(=O)NCCN2CCN(c3cccc(C)c3C)CC2)cc1,inactive: 75%

row,SMILES,survival
1,CCc1cccc(C)c1NC(=O)C1CCN(S(=O)(=O)c2c(C)noc2/C=C/c2c(C)cc(C)cc2C)CC1,inactive: 68%
2,CCc1nnc(SC(CC)C(=O)Nc2ccc(OC)c(Cl)c2)c2cc3occc3n12 (stereo not drawn),inactive: 77%
3,CC(C)OCC(O)Cn1c2ccccc2c2ccccc21 (stereo not drawn),inactive: 122%
4,COc1ccccc1NC(=O)c1c(C)cc(C)nc1SCC(=O)Nc1ccc(C)c(C)c1,inactive: 81%
5,COc1cccc(-n2ccn(CC(=O)NCc3ccc(C)cc3)c(=O)c2=O)c1,inactive: 84%
6,Cc1ccc(CCNC(=O)CN(c2cc(C)cc(C)c2)S(=O)(=O)c2c(C)noc2C)cc1,inactive: 127%
7,COc1ccccc1CNC(=O)CCCn1c(=O)c2ccccc2n(Cc2ccc(F)cc2)c1=O,inactive: 135%
8,COc1ccccc1Nc1nc(-c2ccc(F)cc2)c2c(n1)-c1ccccc1OC2,inactive: 86%
9,CCOc1ccc(C2CC(=O)NC(NC(=O)c3cccc(Cl)c3)=N2)cc1 (stereo not drawn),inactive: 69%
10,Cc1cc(C)c(NS(=O)(=O)c2ccc3c(c2)CC(C)N3C(=O)C2CCC2)c(C)c1 (stereo not drawn),inactive: 64%
11,Cc1ccc(NC(=O)Nc2cccc(C)n2)cc1,inactive: 77%
12,CCOC(=O)c1c(C)c(-c2ccccc2)n(CC(=O)Nc2ccc(OCC)cc2)c1C,inactive: 82%
13,COc1ccc(-c2cn3c(n2)sc2cc(C(=O)Nc4cccc(SC)c4)ccc23)cc1,inactive: 90%
14,CCc1ccc(N(CC)C(=O)CCn2cnc3onc(-c4ccc(F)cc4)c3c2=O)cc1,inactive: 90%
15,Nc1n[nH]c(N)c1N=Nc1ccc(Cl)cc1,inactive: 107%
16,Cc1ccc(CSC2=Nc3ccccc3C3=NC(CC(=O)NCc4cccs4)C(=O)N23)c(C)c1 (stereo not drawn),inactive: 68%
17,CCCCNS(=O)(=O)c1ccc(N2CCCCS2(=O)=O)cc1,inactive: 65%
18,O=C(Nc1ccc2nc(SCCOc3ccccc3)sc2c1)c1ccccc1F,inactive: 92%
19,COc1ccccc1-c1noc(-c2ccc(N3CCN(C)CC3)c([N+](=O)[O-])c2)n1,inactive: 110%
20,Cc1ccc(-c2ccc(=O)n(CC(=O)NCCc3ccc(Cl)cc3)n2)cc1,inactive: 73%
21,Cc1ccc(Cl)cc1N1CCN(C(=O)C2CCN(S(=O)(=O)Cc3ccccc3)CC2)CC1,inactive: 79%
22,CCCOc1ccc(CNC(=O)c2ccc3c(c2)N(Cc2ccccc2)CCS3)cc1,inactive: 138%

row,SMILES,survival
1,COC(=O)C(CCSC)NC(=O)Cn1ncc2c([nH]c3ccccc32)c1=O (stereo not drawn),inactive: 47%
2,COc1cccc2c1cc1c(=O)n(CC(=O)N3CCN(c4cccc(Cl)c4)CC3)nc(C)n12,inactive: 92%
3,Nc1ncnc2c1ncn2CC(O)CO (stereo not drawn),inactive: 111%
4,CNC(=O)c1ccccc1Nc1ccc(SC(F)F)cc1,inactive: 126%
5,O=C(OCc1cc(=O)n2nc(-c3cccs3)sc2n1)c1ccccc1,inactive: 65%
6,CC(=O)n1nc(-c2cccnc2)nc1NCc1ccc(F)cc1,inactive: 83%
7,O=C(c1ccc(Cl)cc1)N1CCC(c2nc3ccccc3o2)CC1,inactive: 81%
8,CCn1cc(C(=O)OCC(=O)Nc2cc(OC)cc(OC)c2)c(=O)c2ccc(C)nc21,inactive: 62%
9,Cc1ccc(CNC(=O)CN2C(=O)CSc3ccc(S(=O)(=O)N(C)C)cc32)cc1,inactive: 95%
10,COCCn1c(SC)nnc1-c1ccccc1,inactive: 127%
11,CCOc1ccc(NC(=O)c2c(NCc3ccc(C)o3)sc3c2CCCCC3)cc1,inactive: 74%
12,Cc1cc(OCC(=O)Nc2c(C(=O)c3ccccc3)oc3ccccc23)cc(C)c1Cl,inactive: 68%
13,CCN1CCN(CCCNC(=O)c2cnn(-c3ccccc3Cl)c2C2CCN(C(=O)OC(C)(C)C)CC2)CC1,inactive: 133%
14,CCOC(=O)C1CCCN(c2c(C(=O)c3ccc(OCC)cc3)cnc3ccccc23)C1 (stereo not drawn),active: 0%
15,CC(C)CN(CCCNC(=O)c1cc(-c2cccs2)nc2ccccc12)CC(C)C,inactive: 61%
16,Cc1nn(C)c2c1c(-c1ccccc1)cc(=O)n2Cc1ccccc1C#N,inactive: 159%
17,Cc1cc(F)ccc1NC(=O)C1CCN(C(=O)c2cnn(-c3ccccc3)c2-n2cccc2)CC1,inactive: 78%
18,O=C(CCC1N=C2c3ccccc3N=C(SCc3cccc(F)c3)N2C1=O)NCCc1ccccc1 (stereo not drawn),inactive: 77%
19,CCCCc1nn2c(=O)cc(COC(=O)c3cccc(Cl)c3)nc2s1,inactive: 76%
20,O=C(c1ccccc1)c1cn(Cc2ccc(F)cc2)c2ccccc2c1=O,inactive: 72%
21,Cc1cccc(C)c1NC(=O)Cn1nnc(C(=O)Nc2c(C)cccc2C)c1N,inactive: 89%
22,COC(=O)c1ccccc1NC(=O)c1ccc(-c2nc(COc3ccccc3)c(C)o2)cc1,inactive: 135%

row,SMILES,survival
1,Cc1ccc(CNC(=O)CN2C(=O)CSc3c2c(C)nn3-c2ccccc2)cc1,inactive: 68%
2,CN1C(=O)Cc2cc(S(=O)(=O)CCC(=O)Nc3ccc(Cl)c(C(F)(F)F)c3)ccc21,inactive: 77%
3,COCCCn1c(=N)c(C(=O)NCc2cccnc2)cc2c(=O)n3cccc(C)c3nc21,inactive: 74%
4,CCOC(=O)c1c(C)[nH]c(CCC(=O)NCc2cccc(C)c2)c1C,inactive: 84%
5,COc1ccc(NC(=O)c2oc3ccccc3c2NC(=O)Cc2coc3cc(C)ccc23)cc1,inactive: 82%
6,COc1ccc(C)cc1NC(=O)CCNC(=O)Cn1ccc2ccccc2c1=O,inactive: 71%
7,COc1ccc2oc(-c3ccc(C)c(NC(=O)c4ccc5c(c4)OCCO5)c3)nc2c1,inactive: 79%
8,COc1ccc(C2=C(C)C(=NCCCN3CCN(c4cc(Cl)ccc4C)CC3)NS2(=O)=O)cc1,inactive: 24%
9,COc1ccc(-n2ncc(C(=O)Nc3ccc4c(c3)OCO4)c2C2CCN(C(=O)OC(C)(C)C)CC2)cc1,inactive: 100%
10,Cc1ccc(NC(=O)Cn2cc(S(=O)(=O)Cc3cccc(Cl)c3)c3ccccc32)cc1C,inactive: 81%
11,O=C(CCC1N=C2c3ccccc3N=C(SCc3ccccc3F)N2C1=O)NCc1ccccc1 (stereo not drawn),inactive: 73%
12,Cn1c(-c2ccccc2)cnc1NCc1ccccc1O,inactive: 60%
13,N#Cc1nc2c(-c3nc4ccccc4s3)c(N)n(Cc3ccccc3)c2nc1C#N,inactive: 105%
14,O=C(NCc1ccccc1Br)c1ccc2c(c1)nc1n2CCOC1,active: -3%
15,CN(C)S(=O)(=O)c1ccc(S(=O)(=O)N(C)CC2COc3ccccc3O2)cc1 (stereo not drawn),inactive: 98%
16,COCCn1nnnc1C(C(C)C)N1CCN(C(=O)c2ccco2)CC1 (stereo not drawn),inactive: 105%
17,COc1cc(-c2nnc(SCCOc3cc(C)cc(C)c3)o2)cc(OC)c1OC,inactive: 128%
18,COc1ccc(-c2cc3ccc(O)c(CN4CCC(C)CC4)c3oc2=O)cc1OC,inactive: 64%
19,Cc1cccc(Cn2cccc2CNS(=O)(=O)c2ccc(Br)cc2)c1,inactive: 64%
20,Cc1ccccc1CN1C(=O)c2ccccc2S(=O)(=O)c2ccc(C(=O)OCC3CCCO3)cc21 (stereo not drawn),inactive: 68%
21,Cc1ccc(C(C)C)c(OC(C)C(=O)NCC2(N(C)C)CCCCC2)c1 (stereo not drawn),inactive: 111%
22,COc1ccc(S(=O)(=O)Nc2cc(S(=O)(=O)c3ccccc3)c(O)c(C)c2C)cc1,inactive: 67%
